Reference: article PMC3923899, “Glypican-1 regulates myoblast response to HGF via Met in a lipid raft-dependent mechanism: effect on migration of skeletal muscle precursor cells” (Skeletal Muscle, 2014)

Target: T1, rat glypican-1 containing a FLAG epitope in its amino terminus (F-Gly) (rat, UniProt P35053 24-530, heparan sulfate chains (HSPG); glycosylphosphatidylinositol anchor; positions not given)
T1 construct: glypican-1, rat; The heparan sulfate chains were still on the protein during the immunoprecipitation; heparitinase and chondroitinase ABC were applied to the beads only afterwards; source: C2C12 myoblasts, transiently transfected (pcDNA3.0), in cell extract (RIPA buffer); not shown: FLAG, N-terminal, kept
T1 sequence (looked up): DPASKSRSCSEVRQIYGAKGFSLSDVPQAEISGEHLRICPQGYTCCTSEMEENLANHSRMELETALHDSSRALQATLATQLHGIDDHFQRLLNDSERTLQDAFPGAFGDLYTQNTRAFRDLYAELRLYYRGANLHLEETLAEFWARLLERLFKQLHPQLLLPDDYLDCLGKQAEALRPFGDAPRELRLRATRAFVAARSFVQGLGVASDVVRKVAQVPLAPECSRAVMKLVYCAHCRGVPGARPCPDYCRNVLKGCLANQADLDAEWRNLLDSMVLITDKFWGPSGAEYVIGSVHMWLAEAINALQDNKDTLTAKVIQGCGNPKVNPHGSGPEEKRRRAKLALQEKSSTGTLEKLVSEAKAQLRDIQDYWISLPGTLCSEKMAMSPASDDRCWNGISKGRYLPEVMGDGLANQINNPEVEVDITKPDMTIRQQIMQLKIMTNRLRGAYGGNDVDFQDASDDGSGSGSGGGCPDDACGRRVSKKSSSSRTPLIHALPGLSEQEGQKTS
Test: co-IP; 20 ng/ml [125I]HGF added for 5 minutes to C2C12 myoblasts transfected with F-Gly or F-GlySyn; extracts in RIPA buffer precipitated with anti-FLAG M2 Affinity Gel, 3 hours at 4°C; [125I]HGF detected by phosphorimager
Details: one partner purified

fold co-immunoprecipitated against F-GlySyn: ~4 fold
B1: [125I]-labelled hepatocyte growth factor (HGF) (ligand)
chain: not shown
modifications: 125I label (chloramine T method)
notes: hepatocyte growth factor; also called HFG; source: bought: R&D Systems (carrier-free), radiolabeled with Na125I
